Measurements taken from PubChem BioAssay AID743279 (National Center for Advancing Translational Sciences (NCATS), 2014).
Screen size: about 360,000 compounds; about 17,000 (4.7%) were called active. Inconclusive means that the source gave no clear call. Such entries were picked first, then a sample of the others. Rule as the data show it: active = activity change below about -50%; inconclusive = mostly about -30% to -49%; inactive = weaker than that.
% is scaled to controls: 0 for no effect and ±100 for the full control effect.

Assay: qHTS for Inhibitors of Inflammasome Signaling: IL-1-beta AlphaLISA Primary Screen
Conditions: THP-1 LPS/ATP IL-1B secretion, 16 h; at 57.5 µM, active compounds read low
Method in brief: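 Secreted IL-1B measured by AlphaLISA bead assay after 16 h compound exposure of THP-1 cells; compounds (final up to 57.5 uM) added 1 h before LPS (250 ng/mL) and ATP (1.25 mM) stimulation; lower signal means less secretion.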
With CCn1cc(C(=O)N2CCc3ccccc32)c(=O)c2cc(S(=O)(=O)N3CC(C)CC(C)C3)ccc21 (centres undefined) the activity change was inactive: -8.56%.
In the case of CCOC(=O)c1cnc2c(F)ccc(F)c2c1Sc1ccccc1, the activity change is reported as inconclusive: -33.2%.
In the case of O=C(CCCSc1ccccc1)Nc1nc(-c2ccccn2)cs1, the activity change is reported as inactive: 29.9%.
In the case of CCOCCCNC(=O)c1ccc2c(=O)n(Cc3ccc(OC)cc3)c(=O)[nH]c2c1, the activity change is reported as inconclusive: -31.3%.
In the case of CCOC(=O)C(NC(=O)Nc1ccc(O)cc1)(c1ccccc1)C(F)(F)F (centres undefined), the activity change is reported as inactive: -8.39%.
For CCCN(CC1CC1)C(=O)CCc1nnc(CCc2c[nH]c3ccccc23)o1, the activity change was inconclusive: -38.1%.
For CCCNC(=S)N1CCC(n2cnc3ccccc32)CC1, the activity change was inconclusive: -30.2%.
With CCCc1cc(=O)[nH]c(SCC(=O)N2N=C(c3ccc(Cl)cc3)CC2c2ccco2)n1 (centres undefined) the activity change was inconclusive: -37.8%.
In the case of CCc1nc(SCC(=O)Nc2ccc3c(c2)OCCO3)c2oc3ccccc3c2n1, the activity change is reported as inactive: 4.28%.
In the case of CC(=O)Nc1ccc(S(=O)(=O)NCC2CCC(C(=O)N3CCCCCC3)CC2)cc1 (centres undefined), the activity change is reported as inactive: 11%.
For COc1cccc(CNC(=O)c2ccc3c(c2)N(C)CCS3)c1OC, the activity change was inconclusive: -30.3%.
For Cc1ccccc1Cc1c(C)nc2c(C(=O)N3CCN(Cc4ccc5c(c4)OCO5)CC3)cnn2c1C, the activity change was inconclusive: -35.9%.
With CCn1c(C)cc(C(=O)CSc2nnc(-c3ccco3)o2)c1C the activity change was inconclusive: -37.2%.
For COc1ccc(CCNS(=O)(=O)c2ccc3c(c2)CC(C)N3C(=O)C2CC2)cc1OC (centres undefined), the activity change was inconclusive: -38.8%.
For CC(C)C[C@@H](CN1CCC[C@H]1CN1C(=O)C(=O)NC[C@@H]1Cc1ccc(O)cc1)N1C[C@H](Cc2ccc(O)cc2)N(CC2CCCCCC2)C(=O)C1=O, the activity change was inconclusive: -41.1%.
In the case of Cc1c(C(=O)NCCCN2CCOCC2)sc2ncnc(N3CCN(c4ccccc4)CC3)c12, the activity change is reported as inconclusive: -43.9%.
For CN(CC(=O)NCc1ccc(F)cc1)Cc1ccc(Br)cc1, the activity change was active: -71.7%.
For Cc1ccc[n+](CC(=O)Nc2cc(C(F)(F)F)ccc2N2CCOCC2)c1, the activity change was inconclusive: -39.8%.
For COc1ccccc1CNC(=O)C1CCN(S(=O)(=O)N2CCCCC2)CC1, the activity change was inactive: 0%.
With CC(C)N(Cc1c(O)ccc2c(=O)c(-c3ccc(Cl)cc3)coc12)C(C)C the activity change was inactive: -4.06%.
With CC(=O)Nc1ccc(/C=N/Nc2nncc3ccccc23)cc1 the activity change was inconclusive: -37.4%.
With S=C(NCCCc1ccccc1)Nc1ccccc1Cl the activity change was inconclusive: -46.9%.
For O=S(=O)(NN=C(c1ccccc1)c1ccccc1)c1ccccc1, the activity change was inconclusive: -34.5%.
For Nc1nc(SCC(=O)c2ccc(Cl)cc2)c2ncn(C3OC(CO)C(O)C3O)c2n1 (centres undefined), the activity change was inactive: 9.83%.
In the case of Fc1cc(F)c(F)c(SCn2cc(Br)cn2)c1F, the activity change is reported as inactive: -14.4%.
For CCC(=O)N1CCc2cc(Br)cc(S(=O)(=O)NCCCN(CC)Cc3ccccc3)c21, the activity change was inconclusive: -45.9%.
With Cc1ccc(NC(=O)c2cc3cc(OC(F)(F)F)ccc3[nH]2)cc1 the activity change was inconclusive: -35%.
In the case of COc1ccc(C(C(=O)NCc2ccccc2)N(C(=O)c2snc(C(N)=O)c2N)c2ccccc2OC)cc1 (centres undefined), the activity change is reported as active: -54.5%.
In the case of COC(=O)C(NC(=O)c1ccccc1Cl)(Nc1ncc(S(=O)(=O)c2ccc([N+](=O)[O-])cc2)s1)C(F)(F)F (centres undefined), the activity change is reported as inconclusive: -38.6%.
With CCOC(=O)C1CCCN(S(=O)(=O)c2cc3c4c(c2)CCN4C(=O)CC3)C1 (centres undefined) the activity change was inconclusive: -32.2%.
In the case of O=C(Nc1ccc(N2CCCC2)c(Cl)c1)c1ccccc1F, the activity change is reported as active: -50.4%.
For O=C(C1=NNCC1c1ccccc1)C1CO1 (centres undefined), the activity change was inconclusive: -33.8%.
For CCN1C(=O)[C@H]2[C@@H](c3ccc(C(F)(F)F)cc3)N[C@]3(CCCN(CC4CCCCC4)C3=O)[C@H]2C1=O, the activity change was inconclusive: -41.6%.
In the case of Nc1cccnc1-n1nc(C(F)(F)F)cc1C(F)(F)F, the activity change is reported as inactive: 16.1%.
In the case of O=C(c1ccccc1)C(Nc1cccc([N+](=O)[O-])c1)c1ccccc1 (centres undefined), the activity change is reported as inconclusive: -39.9%.
In the case of COc1cc(CN(CC(C)C)S(=O)(=O)c2ccccc2Br)cc(OC)c1, the activity change is reported as inactive: -17.9%.
For O=C1Nc2ccccc2/C1=C/c1ccnc2ccccc12, the activity change was inconclusive: -30.5%.
In the case of Cn1c(CN2CCOCC2)nc2cc(NC(=O)c3ccc(F)cc3)ccc21, the activity change is reported as inconclusive: -42.8%.
With COc1cc(CNc2ccc3[nH]c(=O)[nH]c3c2)ccc1OCc1ccc(C)cc1 the activity change was inconclusive: -40.3%.
For CC(=O)N1N=C(c2ccc(Br)cc2)OC1(C)CC(=O)Nc1ccccc1 (centres undefined), the activity change was inconclusive: -49.9%.
With CCOC(=O)/C(=C\c1ccc(OC(F)F)cc1)C1=Nn2c(nnc2-c2ccc(Cl)cc2)SC1 the activity change was active: -102%.
For O=C(CSc1nc2cccnc2n1Cc1ccccc1)NC1CCCCC1, the activity change was inconclusive: -35.6%.
In the case of CC(C)C(N)c1csc(NC(=O)Nc2cccc(C(F)(F)F)c2)n1 (centres undefined), the activity change is reported as inconclusive: -47.1%.
With O=C(Nc1cnccc1C(F)(F)F)NC1CCCCC1 the activity change was inactive: 2.92%.
In the case of Cc1noc2ncnc(Sc3c(Cl)cccc3Cl)c12, the activity change is reported as active: -115%.
For COc1cccc(C(=O)NCC(c2ccco2)N2CCc3ccccc3C2)c1 (centres undefined), the activity change was inactive: -15.2%.
In the case of C=CCn1c(SCC(=O)Nc2ccc3c(c2)OCO3)nc2ccccc2c1=O, the activity change is reported as inconclusive: -38%.
In the case of Cc1ccc(/C=N/NC(=O)Cc2c[nH]c3ccccc23)c(C)c1, the activity change is reported as inconclusive: -45.6%.
In the case of O=C(Nc1ccc(F)cc1)c1ccc(S(=O)(=O)NCC2CCCO2)cc1 (centres undefined), the activity change is reported as inconclusive: -31.5%.
For OCCCCNCc1cc(Br)ccc1OCc1ccccc1, the activity change was inconclusive: -35.1%.
For COc1cc(C(=O)NCC(=O)NC(C)CCc2ccccc2)cc(OC)c1OC (centres undefined), the activity change was inactive: 28.6%.
For CCN(CC)S(=O)(=O)c1cccc(C(=O)Nc2ccccc2)c1, the activity change was inconclusive: -41.4%.
With O=C(NCc1ccccn1)c1ccc(Cn2c(=S)[nH]c3ccccc3c2=O)cc1 the activity change was inactive: 20.4%.
For COC(=O)c1[nH]c2cc(OC)ccc2c1NC(=O)CCN1CCCC(C)(C)C1, the activity change was inconclusive: -30.6%.
With Cc1ccc(N(Cc2ccccc2)C(=O)c2cc(S(=O)(=O)N3CCOCC3)ccc2Cl)cc1 the activity change was inconclusive: -39.1%.
In the case of Cc1ccccc1C(=O)Oc1ccc2ccc(O)cc2c1, the activity change is reported as inactive: -13.7%.
For Cc1ccc(C)c(N2CCN(C(=O)c3csc4ccccc34)CC2)c1, the activity change was inconclusive: -41.1%.
In the case of Cc1ccc(-c2csc3ncnc(SCC(N)=O)c23)cc1, the activity change is reported as inconclusive: -35.1%.
For CCC(=O)c1ccc(OC)c(OC)c1O, the activity change was inconclusive: -32.9%.
With CCN1CCN(c2ccc(S(=O)(=O)N3CCCCC3)cc2NC(=O)COc2ccc(F)cc2Cl)CC1 the activity change was inconclusive: -48.8%.
In the case of CC(Cc1cccnc1)NC(=O)c1cc(COc2ccc(F)cc2F)on1 (centres undefined), the activity change is reported as inactive: -3.4%.
In the case of O=C(Nc1ccccc1)c1nc[nH]c1C(=O)NCCN(CCNC(=O)c1[nH]cnc1C(=O)Nc1ccccc1)CCNC(=O)c1[nH]cnc1C(=O)Nc1ccccc1, the activity change is reported as inactive: -25.8%.
With COc1ccc(NC(=O)CN(C)C(=O)c2cc(-c3ccccc3)nc3ccccc23)cc1 the activity change was inconclusive: -38.9%.
For O=C(c1cc(COc2ccc(F)cc2F)on1)N1CCCC(c2ccccc2)C1 (centres undefined), the activity change was inconclusive: -36.2%.
In the case of CC(=O)c1sc(NC(=O)C2CC(=O)N(Cc3ccco3)C2)nc1-c1ccccc1 (centres undefined), the activity change is reported as active: -94.6%.
With COC(C/C=C/C(=O)COCc1ccccc1)OC the activity change was active: -87.1%.
In the case of Cc1cc(N=Cc2c(O)n(-c3ccc4c(c3)OCO4)c(=O)c3ccccc23)ccn1, the activity change is reported as inconclusive: -41.2%.
For N#Cc1ccc(OCC(=O)NNC(=S)NC2CCCCC2)cc1, the activity change was inactive: 24.6%.
For CCC(=O)OCCNc1cc(Sc2nc3ccccc3[nH]2)c2nonc2c1[N+](=O)[O-], the activity change was active: -101%.
In the case of CC1=C(C(=O)N(C(C)C)C(C)C)CC(CC(=O)NC(c2ccccc2)c2ccccc2)C(=O)N1Cc1ccc(C(C)(C)C)cc1 (centres undefined), the activity change is reported as active: -59.4%.
With CN(C(=O)c1cccc(NC(=O)Cc2ccc(NC(=O)C3CCCN(C(=O)CCc4ccccc4)C3)cc2)c1)C1CCCCC1 (centres undefined) the activity change was inactive: 0.786%.
In the case of O=C(NNC(=O)c1cccc(S(=O)(=O)Nc2ccccc2F)c1)c1ccncc1, the activity change is reported as inactive: 22.2%.
In the case of CCOC(=O)c1csc(N/N=C2\CCc3ccccc32)n1, the activity change is reported as active: -92.5%.
In the case of COc1ccc(C(=O)On2c(-c3ccc(Br)cc3)nc3ccccc3c2=O)cc1, the activity change is reported as inconclusive: -43.1%.
With COC(=O)c1c(-c2ccc(F)cc2)noc1N the activity change was inactive: -7.72%.
In the case of O=C(O)COc1ccc(/C=N/NC(=O)c2ccc(-c3csc(Nc4ccc(Cl)cc4)n3)cc2)cc1, the activity change is reported as inactive: 16.6%.
In the case of COc1ccc(C(=O)N2CCc3cc(OC)c(OC)cc3C2c2ccc(OC)c(OC)c2)cc1 (centres undefined), the activity change is reported as active: -51.3%.
In the case of O=C(COC(=O)c1ncc(Cl)c(Cl)c1Cl)NC1CCS(=O)(=O)C1 (centres undefined), the activity change is reported as inconclusive: -42.6%.
In the case of CN(C)CC(C)(C)CNC(C(=O)Nc1ccc(Cl)cc1C(F)(F)F)c1ccccc1 (centres undefined), the activity change is reported as inconclusive: -47.5%.
With CCCc1nnc(NC(=O)CN2CCN(C)CC2)s1 the activity change was inactive: 25%.
With COC(=O)c1cc(O)cc(OC)c1Oc1cc(C)cc(O)c1C(=O)O the activity change was inconclusive: -40.7%.
For NS(=O)(=O)c1cccc(NC(=O)COC(=O)c2cc(-c3ccc(Cl)cc3)nc3ccccc23)c1, the activity change was inconclusive: -40.1%.
In the case of Cc1nn(-c2ccc(N3CCCCC3)nn2)c(C)c1CCC(=O)Nc1ccccc1F, the activity change is reported as inconclusive: -42.2%.
With C=CCN1C(=O)C(Cc2ccc(SC(F)F)cc2)SC1=Nc1ccc(C(=O)O)cc1 (centres undefined) the activity change was inconclusive: -37%.
